# Assay results taken from the supplement of paper PMC10126150.
# Values marked as one replicate rest on one cluster of the flow cell; about a third of the high ones do not repeat.
# Tested on: ATP
# Assay: switch fluorescence ratio, 500 uM ATP over buffer (Cy3 cluster intensity, sum of 5 cycles each) (fold (ratio)); higher = stronger signal-on switching upon ATP binding; sequences stand for … in TCGTCGGCAGCGTCAGATGTGTATAAGAGACAGTTTTTTTTTTTTTTTTTTTTTTTTT…TC
# Settings: aptamer strand: ATP DNA aptamer (quencher-CACCTGGGGGAGTATTGCGGAGGAAGG + anchor), 100 nM annealed; ATP concentration: 500 uM; one replicate
# In short: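 The fluorescence ratio divides summed target-cycle Cy3 intensity by summed buffer-cycle Cy3 intensity for each cluster and is averaged per switch-domain sequence. Cy3-labelled switching-strand clusters on a modified Illumina MiSeq flow-cell were annealed to 100 nM quencher-labelled ATP aptamer, then imaged in selection buffer and again after 15 min with 500 uM ATP at 22 °C. Five such cycles were run, with NaOH stripping and re-annealing between them, and clusters outside 100-1000 RFU were excluded.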
# 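Also: ATP exposure 15 min at 22 °C before imaging.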
row,Sequence,switch fluorescence ratio
1,GGGGCGAAAT,1.02
2,GGGGCGCATT,1.15
3,GGGGCGGAAG,1.06
4,GGGGCTACAG,1.03
5,GGGGCTCGGC,1.01
6,GGGGCTCGTG,1.02
7,GGGGGACAGT,0.995
8,GGGGGACGAG,0.91
9,GGGGGCGTG,1.01
10,GGGGGGCC,0.986
11,GGGGGGGCG,0.96
12,GGGGGGTAT,1.02
13,GGGGGGTCA,1
14,GGGGGTACG,1.02
15,GGGGGTCCCA,0.99
16,GGGGGTGCCG,1.07
17,GGGGGTTACT,0.983
18,GGGGTATAAT,0.989
19,GGGGTCAG,0.989
20,GGGGTCCCTC,0.984
21,GGGGTCGACC,0.999
22,GGGGTGTCGC,1.06
23,GGGTAAACGA,1.01
24,GGGTAACGCG,1.05
25,GGGTAACGTC,0.967
26,GGGTAACTCA,0.973

row,Sequence,switch fluorescence ratio
1,GGGTAAGACA,1.01
2,GGGTACGAC,0.971
3,GGGTAGAGCG,1.01
4,GGGTATAAAC,0.985
5,GGGTATAGAT,1.01
6,GGGTATCATT,0.955
7,GGGTATTTAT,1.04
8,GGGTCAAATC,0.964
9,GGGTCAC,0.974
10,GGGTCAGTG,0.986
11,GGGTCCACCG,1
12,GGGTCCCCTG,0.986
13,GGGTCCCTTA,1.01
14,GGGTCCGGGG,1.01
15,GGGTCTCGG,1.03
16,GGGTCTCTTA,1.04
17,GGGTCTGTGT,0.987
18,GGGTCTTGAG,1.02
19,GGGTCTTTGC,0.987
20,GGGTGATGAT,1.05
21,GGGTGCTAT,1.03
22,GGGTGCTGAA,0.979
23,GGGTGCTTAG,1.06
24,GGGTGCTTGC,0.989
25,GGGTGGAGAG,0.965
26,GGGTGGCAAA,1.01

row,Sequence,switch fluorescence ratio
1,GGGTGGTATA,0.984
2,GGGTGTCTGT,0.988
3,GGGTGTGGTG,0.886
4,GGGTGTTAAT,0.974
5,GGGTTACTTT,1.01
6,GGGTTAGGCA,1.01
7,GGGTTAGTGT,1.02
8,GGGTTATAAT,0.982
9,GGGTTCAACT,0.999
10,GGGTTGAATT,1
11,GGGTTGCTCT,0.979
12,GGGTTGTCAG,0.957
13,GGGTTTTACC,0.954
14,GGTAAACGCA,1.01
15,GGTAAAGCCC,1.11
16,GGTAACTGGT,1
17,GGTAATATGA,1.01
18,GGTAATGGT,0.953
19,GGTAATTAAC,0.982
20,GGTAATTTCC,1
21,GGTACCCAAG,1.01
22,GGTACGAGCT,1.01
23,GGTACGGCGC,0.996
24,GGTACTCGTC,1.02
25,GGTACTGATG,1.02
26,GGTACTTTGA,1.1

row,Sequence,switch fluorescence ratio
1,GGTAGAACAG,0.98
2,GGTAGCAGGC,0.791
3,GGTAGCCCAG,0.994
4,GGTAGCCGAC,1
5,GGTAGGCGTG,1.03
6,GGTAGGGAAG,0.979
7,GGTAGGTTTG,0.978
8,GGTAGTCCCT,1
9,GGTAGTGGAA,0.988
10,GGTATAAGCC,0.972
11,GGTATCAATC,0.966
12,GGTATCCCGT,0.993
13,GGTATCGACT,0.981
14,GGTATGCTTG,1.08
15,GGTATGTGAA,0.999
16,GGTCAAAAGC,0.995
17,GGTCAAAAGT,1
18,GGTCAATTAA,0.997
19,GGTCACGGTG,1.01
20,GGTCATCTAC,0.987
21,GGTCCAAGCC,0.996
22,GGTCCAATGT,0.934
23,GGTCCATTCA,0.97
24,GGTCCCAACC,0.99
25,GGTCCCATTT,0.994
26,GGTCCCGGAT,0.999

row,Sequence,switch fluorescence ratio
1,GGTCCCTACG,1.08
2,GGTCCCTGAC,1.02
3,GGTCCGGCCA,0.961
4,GGTCCGTTGT,0.968
5,GGTCCTAAAA,0.997
6,GGTCCTCATG,1.03
7,GGTCGAGGGC,0.997
8,GGTCGAGTTT,0.939
9,GGTCGCCTGA,1.02
10,GGTCGGTTAA,1.01
11,GGTCGGTTCG,1.05
12,GGTCGTAAAA,1.03
13,GGTCGTGGAA,0.998
14,GGTCGTGGTG,1.04
15,GGTCGTTATT,0.979
16,GGTCTATTA,0.994
17,GGTCTCCTGA,1.02
18,GGTCTCGGTG,0.978
19,GGTCTGAGTT,1.02
20,GGTCTGGGAA,1.06
21,GGTCTGTACG,0.993
22,GGTCTGTGAA,0.977
23,GGTCTTACGG,1
24,GGTGAAAATA,0.977
25,GGTGAAATAT,1.01
26,GGTGAATCCG,1.04

row,Sequence,switch fluorescence ratio
1,GGTGACAGTT,1.02
2,GGTGACCTGG,1.04
3,GGTGACCTGT,0.964
4,GGTGACGGTC,0.981
5,GGTGAGGACG,0.949
6,GGTGAGTATC,0.986
7,GGTGATAATA,0.994
8,GGTGATACAC,1.03
9,GGTGATGGAA,1.06
10,GGTGATTATC,0.988
11,GGTGATTTG,0.998
12,GGTGCACCGC,0.994
13,GGTGCAGGGT,0.976
14,GGTGCAGTCC,1.01
15,GGTGCCTCAG,1.02
16,GGTGCGGACG,1
17,GGTGCGTGGC,0.994
18,GGTGCTAACA,0.971
19,GGTGCTCAGG,1.08
20,GGTGGACGTT,0.968
21,GGTGGAGAA,0.961
22,GGTGGCCCGT,0.989
23,GGTGGCTGCG,0.996
24,GGTGGGAAAT,1.1
25,GGTGGGACAT,0.952
26,GGTGGGCCCG,1.5

row,Sequence,switch fluorescence ratio
1,GGTGGGCCTG,0.992
2,GGTGGTATTA,0.982
3,GGTGGTTA,0.965
4,GGTGGTTCCG,0.978
5,GGTGTACACG,0.998
6,GGTGTATGCC,0.988
7,GGTGTCCCAT,0.97
8,GGTGTCCTTT,1.01
9,GGTGTCGAGG,1.02
10,GGTGTTCGGT,1.04
11,GGTGTTGGT,1.04
12,GGTTAATACG,0.985
13,GGTTACACTC,1.05
14,GGTTACATAT,1.04
15,GGTTACGGCT,1.02
16,GGTTAGTCAT,1.02
17,GGTTATAATA,0.996
18,GGTTATAT,0.999
19,GGTTATCAAT,0.99
20,GGTTATTTAG,0.984
21,GGTTATTTGG,0.983
22,GGTTCAATAG,1.15
23,GGTTCATAAA,0.968
24,GGTTCCACCG,1.07
25,GGTTCCACTT,0.993
26,GGTTCCATGA,0.993

row,Sequence,switch fluorescence ratio
1,GGTTCTTTTG,0.947
2,GGTTGATCAA,0.924
3,GGTTGCATAA,1.04
4,GGTTGGTACC,0.991
5,GGTTGGTGA,0.971
6,GGTTTAACAT,0.992
7,GGTTTACTGC,1.05
8,GGTTTATAAT,1.01
9,GGTTTATACA,1
10,GGTTTCGCAT,1.18
11,GGTTTGAATT,0.986
12,GGTTTGGACA,0.972
13,GGTTTGGACT,1.05
14,GGTTTGGATG,1.32
15,GGTTTGGCCC,1.01
16,GGTTTGGTGA,1.05
17,GGTTTTACTG,1.05
18,GGTTTTCGGA,0.953
19,GTAAAAATCT,1.04
